Assay results taken from paper PMC8317129 (ACS infectious diseases, 2021).

System: N. gonorrhoeae ATCC 700825
Assay: time-kill
Details: 10 × MIC; for bacteriostatic or bactericidal activity: 24 hours

CC[C@H]1OC(=O)[C@H](C)[C@@H](O[C@H]2C[C@@](C)(OC)[C@@H](O)[C@H](C)O2)[C@H](C)[C@@H](O[C@@H]2O[C@H](C)C[C@H](N(C)C)[C@H]2O)[C@](C)(O)C[C@@H](C)CN(C)[C@H](C)[C@@H](O)[C@]1(C)O [AZI, azithromycin]
bacteriostatic or bactericidal activity: bactericidal

CC(=O)Nc1nnc(S(N)(=O)=O)s1 [AZM, acetazolamide]
reduction of bacterial CFU count compared to DMSO (24-hour time point): ≥ 3 log10

NS(=O)(=O)c1nnc(NC(=O)CC2CCCCC2)s1 [analog 20]
reduction of bacterial burden compared to AZM: 2.4 log10
bacteriostatic or bactericidal activity: bacteriostatic

NS(=O)(=O)c1nnc(NC(=O)CCc2ccccc2)s1 [analog 23]
bacteriostatic or bactericidal activity: bacteriostatic
